This passage reports TGI and GI50 results from PubChem BioAssay (NCI).

Values joined by “and” are separate entries in the source; they are usually repeats but may differ in a detail not shown here. Equal values may be shown once.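 Assay format: 96-well plates, 48-hour exposure. GI50 = concentration required for 50% inhibition of growth. TGI denotes the concentration required for complete inhibition of growth.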

The experiment has as its system NCI-H322M lung. The experiment can be described thus: growth of human tumour cells (NCI), 48 h.

Regarding `COc1ccc(N2C=Nn3c(nc4sc5c(c4c3=O)CCCC5)C2)cc1`, the TGI is more than 100 µM.

Molecule `O=c1c2cccc3cccc(c4n1CCN=4)c32` registered a TGI of more than 100 µM.

`COC(=O)c1cnc(Cl)cn1` had a TGI of more than 100 µM.

`Oc1ccc(Cl)cc1CN1CCN(Cc2cc(Cl)ccc2O)C1` registered a TGI of 6.99 µM.

For the molecule `O=C1CC(c2cccc(Br)c2)n2cccc21` (centres undefined), the TGI was more than 100 µM.

Take `C[N+]1(CCCl)CC[N+](C)(CCCl)CC1` (centres undefined): the TGI was more than 100 µM.

Regarding `COc1nc(N)nc2c1ncn2C1OC(CO)C(O)C1O` (centres undefined), the GI50 is 3890 µM and the TGI is more than 5000 µM.

As for `CC/C=C(\C(=C/CC)[N+](=O)[O-])[N+](=O)[O-]`, the TGI was more than 100 µM.

With `CN(C)C(=O)OC(Cn1cncn1)(Cn1cncn1)c1ccc(Cl)cc1Cl`, the TGI was more than 100 µM.

On to `CC(=O)OC1CC2C(C)(C)C(=O)C=C[C@]2(C)C2CCC3(C)C(=CC(=O)C3c3ccoc3)[C@]12C` (some centres undefined), for which the TGI worked out at 28.6 µM.

With `CC(C)(C)[Si](C)(C)OC1[C@@H](O[Si](C)(C)C(C)(C)C)[C@@H](CNC(=O)NC(=O)CCl)O[C@H]1n1cnc2c(NC(=O)Nc3ccccc3)ncnc21` (some centres undefined), the GI50 is 17.4 µM and the TGI came out at 47.1 µM.

Regarding `CC1(C)C2CC(=O)C1(C)C(OCc1ccccc1)C2` (centres undefined), the TGI was more than 100 µM.

Consider `CCN(CC)CCCC(C)N=C(C1=C(C(=NC(C)CCCN(CC)CC)c2cccc(OC)c2)C(=O)NC1=O)c1cccc(OC)c1` (centres undefined), for which the GI50 is 2.24 µM and the TGI came to 10.1 µM.

Turning to `COc1cccc(/C=C/C(=O)c2ccc(Cl)cc2Cl)c1`, the GI50 was 12.4 µM and the TGI was determined as 27.5 µM.

For the molecule `CN/N=C(\C)C(CN(C)C)C(c1ccccc1)c1c(O)c2ccccc2oc1=O` (centres undefined), the TGI is more than 100 µM.

Molecule `Cc1c(C(=O)/C=C/c2ccc(N(C)C)cc2)c(=O)n(-c2ccccc2)n1C` registered a TGI of more than 100 µM.

As for `CCOC(=O)CC(=O)Nc1cccc2[nH]cnc12`, the TGI is more than 100 µM.

As to `COc1cccc(C2c3cc4c(cc3OC(N3CCCC3)C2C)OCO4)c1O` (centres undefined), the TGI is more than 80 µM.

`CSc1n[n+]2c(s1)SCCC2` displayed a TGI of more than 100 µM.

Take `O=C(OCc1ncc(-c2ccc(C(F)(F)F)cc2)c(NC2CCCCCC2)n1)c1c(F)c(F)c(F)c(F)c1F`: the GI50 was 17.3 µM and the TGI turned out to be 32 µM.

In turn, `Nc1ccn(C2OC(COC(=O)C34CC5CC(CC(C5)C3)C4)C(O)C2O)c(=O)n1` (centres undefined) came in with a TGI of more than 100 µM.

In turn, `FC(F)(F)c1cccc(-c2nc3ccccc3c3c2[C@@]2(N4CCCC4)CCCC[C@@H]32)c1` returned a TGI of more than 100 µM.

In turn, `COC(=O)[C@H](Cc1c[nH]c2ccccc12)NC(=O)c1ccc(CNC(=O)/C=C/c2cccc(Oc3ccccc3)c2)cc1` gave a TGI of more than 100 µM.

The molecule `C=C1C(=O)O[C@@H]2C=C(C)C3=CC(=O)[C@](C)(C[C@H](OC(=O)/C(C)=C\C)[C@@H]12)O3` displayed a TGI of 11.3 µM.

`C=C1C(=O)O[C@@H]2C[C@]3(C)CC[C@]4(C)[C@H](CC[C@@H]5[C@@]6(C)CCC(=O)C(C)(C)[C@@H]6CC[C@]54C)[C@H]3[C@H]12` registered a TGI of 46 µM.

With `Cc1cc(CC(C)CC(C)(C)C)n(O)c(=O)c1` (centres undefined) (tested in a mixture with another compound), the GI50 was 2.33 µM and the TGI amounted to 42.2 µM.

Molecule `Cc1ccc(S(=O)(=O)NNC(=O)c2cc(C)c(C)cc2N)cc1` gave a TGI of more than 100 µM.

The molecule `CN(/N=C/c1ccnc2ccccc12)c1ccc(Cl)cc1[N+](=O)[O-]` yielded a TGI of more than 100 µM.

Regarding `O=C(/C=C/c1ccccc1)n1c(-c2ccc(Cl)cc2)nc2ccccc21`, the GI50 is 1.96 µM and the TGI was 6.52 µM.

For the molecule `CO[C@H](C(=O)[C@@H](O)[C@@H](C)O)[C@@H]1Cc2cc3cc(OC4CC(OC5CC(O)C(O)C(C)O5)C(O)C(C)O4)c(C)c(O)c3c(O)c2C(=O)[C@H]1OC1CC(OC2CC(OC3CC(C)(O)C(O)C(C)O3)C(O)C(C)O2)C(O)C(C)O1` (some centres undefined), the GI50 is 0.028 µg/mL and 0.018 µg/mL.

As to `CCCCCCCCCCC1OC([C@@H](O)CC[C@H](O)C2CC[C@@H](CCCCCCCC(O)CC3=CC(C)OC3=O)O2)CCC1O` (some centres undefined), the TGI was more than 25 µM.

For `Cc1ccc(N(CC(=O)Nc2ccc(S(=O)(=O)N3CCC(N4CCCC4)CC3)cc2)S(=O)(=O)c2ccc(Cl)cc2)cc1`, the GI50 is 2.07 µM and the TGI was found to be 4.89 µM.

Take `CCCC(CCC)C(=O)OCC1(CO)C/C(=C\c2ccc(F)cc2)C(=O)O1` (centres undefined): the GI50 was 13.1 µM and the TGI turned out to be 27.7 µM.

In the case of `CCCCCCCCCCCCCCCC(=O)N(CCCCCCCCCCC(=O)O)CC(O)C(O)C(OC1OC(CO)C(O)C(O)C1O)C(O)CO` (centres undefined), the TGI is more than 100 µM.

For `O=c1c(Cl)c(Cl)c(=O)c2sc3cc(Cl)ccc3[nH]c1=2`, the TGI was more than 100 µM.

In turn, `CCCCON1C[C@H](OC(C)=O)C(OC(C)=O)[C@H](OC(C)=O)C1` (some centres undefined) displayed a TGI of more than 100 µM.

For the molecule `CN(Cc1cc(Cl)cc(Cl)c1)CC(C(=O)c1ccccc1)c1ccccc1` (centres undefined), the TGI was more than 60.9 µM.

In turn, `CC1=NN(C(=O)c2ccc([N+](=O)[O-])cc2)C(=O)C1N=Nc1ccccc1C(=O)O` (centres undefined) displayed a TGI of more than 100 µM.

In the case of `C=C(Nc1ccc([N+](=O)[O-])cc1[N+](=O)[O-])c1c/c(=N\NC(N)=S)c2ccccc2o1`, the TGI was more than 100 µM.

On to `Cc1cn2c(/C=N/N=C(N)N)c(-c3cccs3)nc2s1`, for which the GI50 was 3.97 µM and the TGI amounted to 15.7 µM.

As to `COC(=O)N1CC2C3C4CC(C(c5ccccc5)=C4c4ccccc4)C3C21` (centres undefined), the TGI was 31.3 µM.

Turning to `CC1OC(OC2C(OC(=O)[C@]34CCC(C)(C)C[C@H]3C3=CC[C@@H]5[C@@]6(C)CC[C@H](OC7OC(C(=O)O)C(O)C(OC8OCC(O)C(O)C8O)C7O)C(C)(C)[C@@H]6CC[C@@]5(C)[C@]3(C)CC4)OCC(O)C2O)C(O)C(OC2OCC(O)C(O)C2O)C1OC1OCC(O)C(OC2OCC(O)C(O)C2O)C1O` (some centres undefined), the GI50 was 5.14 µM and 13.2 µM; the TGI was 16.1 µM and 26.2 µM.

`COC1=CC(=O)C2C(C1=O)C(c1ccccc1)[C@H]2C` (some centres undefined) registered a TGI of more than 100 µM.

Turning to `Cc1cc(C)c(NC(=S)NC(=O)c2ccccc2)cc1C`, the TGI was more than 100 µM.

Regarding `O=c1[nH]c2cc(Cl)ccc2nc1/C(=N\O)C(O)c1ccc([N+](=O)[O-])cc1` (centres undefined), the TGI is more than 100 µM.

In turn, `CC[C@H]1C=CCC[C@@]2(C[C@@H]3CC[C@H]4[C@@H](C(=O)OCCCCCCCCCCCCCCCC(=O)N(CCCN)C[C@@H](O)CCN)[C@@]5(CCC[C@@H](C)O5)NC(=[N+]34)N2)O1` had a TGI of 3.09 µM.

Regarding `COc1c(O)cc2c(c1O)C(=O)/C(=C/c1ccc(O)cc1)CO2`, the TGI came out at 70.1 µM.

For `COC(C)(C)C1(O)CCC(C)CC1=O` (centres undefined), the TGI is more than 100 µM.

Consider `COC(=O)C(Cc1nc2ccccc2[nH]c1=O)C(=O)C(=O)Nc1ccc([N+](=O)[O-])cc1[N+](=O)[O-]` (centres undefined), for which the TGI is more than 100 µM.

In turn, `c1c[nH]c(C23C4C5C6C4C2C6C53)n1` (centres undefined) showed a TGI of more than 100 µM.

In the case of `CC(C)(C)C(=O)OC12/C(=N/O)CCCCCC1c1ccccc12` (centres undefined), the TGI turned out to be 30.1 µM.

The molecule `CC(C)(C)C1CCC2c3c([nH]c4ccccc34)C3C(=O)N(c4ccccc4)C(=O)C3C2C1` (centres undefined) displayed a TGI of more than 100 µM.

In turn, `O=C(N/N=C(/COc1ccc([N+](=O)[O-])cc1)N=Cc1ccncc1)c1ccncc1` had a TGI of more than 100 µM.

Take `CC(C)C(/C=C/c1ccc(Cl)c(Cl)c1)=N\NC(=O)N/N=C(/C=C/c1ccc(Cl)c(Cl)c1)C(C)C`: the TGI was more than 100 µM.

Molecule `CN(CCNCc1cn(C)c2c1ccc1ccccc12)CCNCc1cn(C)c2c1ccc1ccccc12` displayed a TGI of 2.73 µM.

With `Nc1nn2c(nc(N)c3c(N)[nH]nc32)c1N=Nc1ccc(Br)cc1`, the TGI was more than 95.5 µM.

The molecule `CC1=C(C(=O)c2ccccc2)C23C(=O)N(c4ccccc4)C(=O)C2=C(O)C=CC3(O)N1` (centres undefined) returned a TGI of more than 100 µM.

`COC(C(=O)NCCCCNC(=O)C(OC)c1ccccc1)c1ccccc1` (centres undefined) had a TGI of more than 100 µM.

In the case of `O=C1c2cc(Cl)ccc2NC(=NCCCl)C2CSCN12` (centres undefined), the TGI is more than 100 µM.

`O=C(O)CC1NCc2cc3ccccc3nc21` (centres undefined) showed a TGI of more than 100 µM.

`Cc1ccc(/C=N/Nc2ccc3ccccc3n2)s1` returned a TGI of 34.5 µM.

Take `Cc1sc2c(c1C)C(c1ccc(Cl)cc1)=N[C@@H](CC(=O)OC(C)(C)C)c1nnc(C)n1-2`: the GI50 is 0.82 µM and 0.296 µM; the TGI is 41 µM and 19 µM.

For the molecule `COc1ccc2c(c1)CC[C@H](O)/C2=C/c1cc(OC)c(OC)c(OC)c1`, the GI50 is 0.565 µM and the TGI is more than 100 µM.

Turning to `O=C(Nc1ccc(-n2ccc3c(NC(=O)c4ccccc4)ncnc32)cc1)Nc1cccc(Cl)c1Cl`, the GI50 was 1.8 µM and the TGI was more than 50 µM.

Regarding `O=C(O)Cc1ccc2[nH]c(O)c(C3=Nc4ccccc4C3=O)c2c1`, the TGI is more than 100 µM.

On to `O=S1Nc2c(Cl)cc(Cl)c3c(Cl)cc(Cl)c(c23)N1`, for which the TGI was more than 100 µM.

`C=CCO[C@]1(CC=C)C(=O)C(=O)OC1C1COC(C)(C)O1` (some centres undefined) showed a TGI of more than 100 µM.

For the molecule `Nc1nc2c(c(=O)[nH]1)C(c1ccc(Cl)cc1)C=C(c1ccccc1)N2` (centres undefined), the TGI was more than 100 µM.

Take `Cc1cc(S(=O)(=O)Nc2nc(N)nc(N(C)C)n2)c(SCC(=O)O)cc1Cl`: the TGI was more than 10 µM.

For the molecule `C/C=C/C1OC(O)(C(C)C(O)[C@H](C)C2OC(=O)/C(OC)=C/C(C)=C/[C@@H](C)[C@@H](O)[C@@H](C)C(O)C(C)C/C(C)=C/C=C/C2OC)C[C@@H](OC2CC(O)C(OC(N)=O)C(C)O2)C1C` (some centres undefined), the TGI was 15.5 µM.

The molecule `O=C1C(Cl)C(c2ccccc2O)N1n1cnc2ccccc2c1=O` (centres undefined) showed a TGI of more than 100 µM.

Turning to `O=C(O)CCC(=O)c1ccc(Cl)cc1`, the TGI was more than 100 µM.

`COc1cc(CNC2c3cc4c(cc3C(c3cc(OC)c(OC)c(OC)c3)[C@H]3C(=O)OCC23)OCO4)cc(OC)c1OC` (some centres undefined) showed a TGI of more than 100 µM.

`CCCCCCCCCCCCOCCCOP(=O)([O-])OCC[N+](C)(C)C` had a TGI of more than 100 µM.

For `CC1(CCC(=O)OC2CCCCC2)OCCO1`, the TGI is more than 100 µM.

On to `CCOC(=O)CC1C(COC(=O)NC)OC(n2cnc3c(NC(=O)Nc4ccccc4)ncnc32)C1O[Si](C)(C)C(C)(C)C` (centres undefined), for which the GI50 was 31.7 µM and the TGI was more than 100 µM.

Consider `O=C(Cc1ccccc1)Nn1c(-c2ccccc2)nc2ccccc2c1=O`, for which the TGI was more than 100 µM.

As for `Cc1cc(=O)oc2c(C)c(OCCCOc3ccc4c(C)cc(=O)oc4c3C)ccc12`, the TGI was more than 100 µM.

With `C=C1C(=O)O[C@H]2[C@@H](O)[C@H](C)CCC[C@]3(C)O[C@H]3CC[C@@]3(C)O[C@@H]3C[C@@H]12`, the TGI amounted to 12 µM.
